From PubChem BioAssay AID1452 (National Center for Advancing Translational Sciences (NCATS), 2008)
Among all 150,000 compounds or so, about 190 (0.13%) were called active. Inconclusive results, whose numbers are uncertain, are shown with a selection of clear calls. Calls come from the whole dose curve; as a rule, active = well fitted inhibition curve with a large enough effect; inconclusive = small, poorly fitted or top-dose-only effect; inactive = flat fitted curve, though single readings scatter. A potency beside an inconclusive call is a rough fit, not a confirmed value.

target: Polyunsaturated fatty acid lipoxygenase ALOX12 (Homo sapiens) (UniProt P18054); assay: qHTS Assay for Inhibitors of 12-hLO (12-human lipoxygenase); details: purified 12-hLO, xylenol orange hydroperoxide absorbance; series mostly up to 57.1 µM; note: nearly all actives have a fitted effect of over 55% in size
UniProt P18054, sequence (P18054 whole entry, looked up): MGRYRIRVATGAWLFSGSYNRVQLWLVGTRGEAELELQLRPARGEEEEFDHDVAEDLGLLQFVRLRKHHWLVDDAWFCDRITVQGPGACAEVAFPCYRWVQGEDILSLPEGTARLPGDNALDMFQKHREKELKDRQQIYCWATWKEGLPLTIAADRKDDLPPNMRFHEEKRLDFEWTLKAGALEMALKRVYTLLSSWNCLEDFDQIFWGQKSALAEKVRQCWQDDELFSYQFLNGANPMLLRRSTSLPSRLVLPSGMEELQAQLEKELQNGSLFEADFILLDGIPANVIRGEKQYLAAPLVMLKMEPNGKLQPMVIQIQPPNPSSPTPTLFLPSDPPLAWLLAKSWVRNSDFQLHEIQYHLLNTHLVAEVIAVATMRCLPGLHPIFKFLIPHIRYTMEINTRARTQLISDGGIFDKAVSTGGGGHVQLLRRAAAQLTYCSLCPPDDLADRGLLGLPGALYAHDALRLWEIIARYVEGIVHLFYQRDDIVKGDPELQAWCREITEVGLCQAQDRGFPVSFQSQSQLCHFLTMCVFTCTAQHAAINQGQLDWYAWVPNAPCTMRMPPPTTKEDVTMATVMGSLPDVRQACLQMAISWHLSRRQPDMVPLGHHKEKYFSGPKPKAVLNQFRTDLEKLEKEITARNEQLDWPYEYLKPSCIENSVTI
Method in brief: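 150 nM 12hLO, 25 mM Hepes pH 7.0 + 0.01% Triton X-100; cpd preinc 15 min RT; 40 uM arachidonic acid, 30 min RT; Fe-XO 30 min; A573/A405 ratio as read-out.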
% is set by controls: 0 for no effect and ±100 for the full control effect; potency is the fitted concentration of half-maximal effect; tags give direction and shape of the fitted curve.

SMILES | Potency | activity change, negative = inhibition
CCC(C)=O | inactive | –
Cc1cccc(NC(c2ccc(O)cc2)c2ccc3ccc(C)nc3c2O)n1 (stereo not drawn) | inconclusive: 28.2 µM [inhibitor, partial curve] | –
CCOC(=O)Cc1csc(-n2sc3ccccc3c2=O)n1 | active: 4.47 µM | –
Cc1ccc(NC(=S)NC(NC(=O)c2ccccc2)C(Cl)(Cl)Cl)c(C)c1 (stereo not drawn) | inconclusive: 22.4 µM [inhibitor, partial curve] | –
CS(=O)(=O)N(Cc1ccccc1)c1ccc(C(=O)Nc2cccnc2)cc1 | inactive | –
Cc1ccccc1C(=O)NC(=S)NCCc1ccccc1 | inconclusive: 14.1 µM [inhibitor, partial curve] | –
COCCCn1cc(C(=O)c2cc(OC)ccc2OCC(=O)Nc2cc(C)on2)cc(C#N)c1=O | inconclusive: 39.8 µM [inhibitor, single point] | –
Cc1ccc(NC(=S)NCc2ccccc2Cl)c(C)c1 | inconclusive: 35.5 µM [inhibitor, single point] | –
Cc1ccc(-n2c(O)c(/C=N/Nc3ccc(S(=O)(=O)N4CCOCC4)cc3[N+](=O)[O-])c3ccccc3c2=O)c(C)c1 | inactive | –
CC1(C)CC(=O)C2=C(C1)Nc1cc3c(cc1C2c1ccc(F)cc1)OCO3 (stereo not drawn) | inconclusive: 31.6 µM [inhibitor, single point] | –
COc1cc(/C=C/C(=O)c2ccc(Cl)s2)cc(OC)c1O | inconclusive: 25.1 µM [inhibitor, single point] | –
O=C1NC(=NCc2ccccc2)S/C1=C/c1ccc(O)cc1 | inconclusive: 25.1 µM [inhibitor, partial curve] | –
Cc1ccc(NC(=O)N2CCCN(Cc3ccc(F)cc3)C2)cc1C | inconclusive: 39.8 µM [inhibitor, single point] | –
CCC(C)O (stereo not drawn) | inactive | –
N#C/C(=C/c1ccc(N2CCOCC2)o1)c1ccc(Br)cc1 | inconclusive: 10 µM [inhibitor, partial curve] | –
CCCOc1cccc(-c2cc(C(=O)NNC(=S)NCC)c3ccccc3n2)c1 | inconclusive: 39.8 µM [inhibitor, single point] | –
Cc1ccc(C)c(-c2ccc(C(=O)O)o2)c1 | – | inactive: 1.86% [at 0.00818 µM]
COc1ccc(C(=O)NCCN2C(=O)S/C(=C\c3cccnc3)C2=O)c(OC)c1OC | inactive | –
Cc1cc(C)c2nc(-c3ccccn3)cc(C(=O)Nc3cc(C)on3)c2c1 | inactive | –
CCOc1ccc2c(c1)C(C)=CC(C)(C)N2C(=O)Nc1ccccc1 | inconclusive: 22.4 µM [inhibitor, single point] | –
CC(C)C(CCNC(=O)CC(Cc1ccccc1)c1ccco1)c1ccco1 (stereo not drawn) | inconclusive: 11.2 µM [inhibitor, partial curve] | –
Oc1c(I)cc(Cl)c2cccnc12 | inconclusive: 0.708 µM [inhibitor, full curve] | –
CC(C)CCNC(=S)Nc1ccccn1 | inconclusive: 25.1 µM [inhibitor, single point] | –

SMILES | Potency | activity change, negative = inhibition
C=CC(C1=CC(=O)C(OC)=CC1=O)c1ccc(OC)cc1 (stereo not drawn) | inconclusive: 20 µM [inhibitor, single point] | –
Nc1ccc(Nc2ccccc2)cc1 | inconclusive: 8.91 µM [inhibitor, partial curve] | –
Cn1c(-c2ccc3c(c2)OCO3)cnc1NCc1ccc(Cl)cc1 | inconclusive: 25.1 µM [inhibitor, single point] | –
O=C(Nc1nc(-c2cccs2)cs1)c1ccc(S(=O)(=O)N2CCCCC2)cc1 | inconclusive: 28.2 µM [inhibitor, single point] | –
COc1ccccc1CCN1C(=S)NC(C)(C)CC1(C)O (stereo not drawn) | inconclusive: 31.6 µM [inhibitor, single point] | –
S=c1[nH]nc(SCc2ccccc2Cl)c2[nH]cnc12 | inconclusive: 3.16 µM [inhibitor, partial curve] | –
CC1=C(C(=O)OCC(C)C)C(c2cccs2)NC(=S)N1 (stereo not drawn) | inconclusive: 10 µM [inhibitor, partial curve] | –
CNc1ccc(Br)cc(C(=O)/C=C/c2ccc3c(c2)OCO3)c1=O | inconclusive: 12.6 µM [inhibitor, partial curve, poor fit] | –
Oc1ccccc1-c1cc(-c2cccc(F)c2)n[nH]1 | inconclusive: 11.2 µM [inhibitor, partial curve] | –
CCn1cc(C(=O)Nc2ccccc2C(=O)OC)c(=O)c2ccc(C)nc21 | inconclusive: 12.6 µM [inhibitor, partial curve] | –
CC[C@H]1C(c2cccc(Cl)c2)=NN(c2ccccc2)[C@@H]1CO | inconclusive: 31.6 µM [inhibitor, single point] | –
CCOc1cc(NC(=S)Nc2cccc(OC)c2)c(OCC)cc1NC(=O)C1CC1 | inconclusive: 31.6 µM [inhibitor, single point] | –
CN(C1CCCCC1)S(=O)(=O)Cc1ccccc1 | inactive | –
O=C(O)c1cc(-c2ccc(/C=N/Nc3ccc(Cl)cc3)o2)ccc1Cl | inconclusive: 11.2 µM [inhibitor, partial curve] | –
Cc1cc2cc(CN(Cc3nnnn3C3CCCCC3)CC3CCCO3)c(=O)[nH]c2cc1C (stereo not drawn) | inconclusive: 28.2 µM [inhibitor, partial curve] | –
O=C(COc1ccc(Cl)cc1Cl)NNC(=S)Nc1ccc(F)cc1 | inconclusive: 28.2 µM [inhibitor, partial curve] | –
Cc1ccc(C)n1-c1sc2c(c1C#N)CCC(C)C2 (stereo not drawn) | inconclusive: 31.6 µM [inhibitor, single point] | –
O=C(COc1ccccc1)N(Cc1ccco1)C1CCS(=O)(=O)C1 (stereo not drawn) | inactive | –
O=C(Nc1ccccc1)c1nnsc1S(=O)(=O)c1ccc(Cl)cc1 | inconclusive: 22.4 µM [inhibitor, single point] | –
COC(=O)c1ccc(-n2nnnc2SCC(=O)N2CCCCC2)cc1 | inactive | –
CCN(CC)CCN1C(=O)C(O)=C(C(=O)c2cccs2)C1c1ccccn1 (stereo not drawn) | inactive | –
COc1cc(NS(=O)(=O)c2ccc(NC(=S)NC(=O)C3CCCC3)cc2)nc(OC)n1 | inconclusive: 28.2 µM [inhibitor, partial curve] | –
O=C(c1ccccc1)N1CCN(c2ccc(NCc3ccc4c(c3)OCO4)cc2)CC1 | inconclusive: 4.47 µM [inhibitor, partial curve] | –

SMILES | Potency | activity change, negative = inhibition
N#Cc1c(NC(NC(=O)c2ccco2)C(=O)c2ccccc2)sc2c1CCCC2 (stereo not drawn) | inconclusive: 20 µM [inhibitor, single point] | –
COc1ccc(/C=N/n2c(=O)[nH]c3c([nH]c4ccc(Br)cc43)c2=O)cc1CN1CCOCC1 | inconclusive: 12.6 µM [inhibitor, partial curve] | –
COC(=O)c1ccc(NC(=S)NC(=O)c2cc(-c3ccccc3)nc3ccccc23)cc1 | inconclusive: 14.1 µM [inhibitor, partial curve] | –
CCN1CCN(C(c2cccnc2)c2cc(Cl)c3cccnc3c2O)CC1 (stereo not drawn) | inconclusive: 14.1 µM [inhibitor, partial curve] | –
CCCCNS(=O)(=O)c1ccc(NS(=O)(=O)c2c(C)cc(C)cc2C)cc1 | inconclusive: 14.1 µM [inhibitor, partial curve] | –
NCC1OC(n2cnc3c(=O)[nH]c(N)nc32)C(O)C1O (stereo not drawn) | inconclusive: 8.91 µM [inhibitor, single point] | –
O=C(O)c1cc2ccccc2c(S(=O)(=O)O)c1O | – | inactive: 0.531% [at 11.4 µM]
O=C(c1cccs1)n1cc(C(=S)N2CCOCC2)c2ccccc21 | inconclusive: 31.6 µM [inhibitor, partial curve] | –
COC(=O)c1cc(=O)c(O)c2c(O)c(O)ccc2c1 | inconclusive: 14.1 µM [inhibitor, partial curve] | –
Cc1cc(NS(=O)(=O)c2ccc(NC(=S)NC(=O)c3ccccc3)cc2)no1 | inconclusive: 14.1 µM [inhibitor, partial curve] | –
CCOc1ccc(-c2n[nH]c(C)c2-c2ccccc2OC)c(O)c1 | inconclusive: 14.1 µM [inhibitor, partial curve] | –
Clc1ccc(N=c2ssnc2Cl)cc1 | inconclusive: 39.8 µM [inhibitor, single point] | –
COc1ccc(S(=O)(=O)/N=C2/NC(=O)/C(=C\c3ccco3)S2)cc1 | inconclusive: 35.5 µM [inhibitor, single point] | –
Fc1ccccc1Nc1nc2c(s1)CCc1ccccc1-2 | inconclusive: 25.1 µM [inhibitor, partial curve] | –
O=C(NC(=S)Nc1cccc(Cl)c1N1CCCCC1)c1cccs1 | inconclusive: 25.1 µM [inhibitor, single point] | –
O=C(c1ccc(Br)cc1)C1CCc2occc2C1=O (stereo not drawn) | inconclusive: 11.2 µM [inhibitor, partial curve] | –
O=C(Cc1ccc(Cl)cc1)NC(=S)Nc1ccccc1N1CCOCC1 | inconclusive: 20 µM [inhibitor, partial curve] | –
CCOCCCNS(=O)(=O)c1ccc(NC(=O)N2c3ccccc3Sc3ccccc32)cc1 | inconclusive: 25.1 µM [inhibitor, single point] | –
CCc1ccc(O)c(N=Cc2cccc(C)c2O)c1 | inconclusive: 20 µM [inhibitor, single point] | –
CC(C)c1ccc(/C=C/C(=O)NCCC2=CCCCC2)cc1 | inconclusive: 15.8 µM [inhibitor, partial curve] | –
CCOc1cc(/C=C2\SC(=S)N(Nc3ccccc3)C2=O)ccc1O | inconclusive: 6.31 µM [inhibitor, partial curve] | –
Cc1ccc(S(=O)(=O)N/N=C/c2ccc(OCC(=O)Nc3ccccc3Cl)cc2)cc1 | inactive | –
